Measured values from PubChem BioAssay AID1745853 (National Center for Advancing Translational Sciences (NCATS), 2022).
This is one part of the list. These are further read-outs of the screen, such as a control signal, another cell line or another target. No call is given for them.

Tests used:
Assay in all cases: Primary Screen for Target Class Profiling of Small Molecule Inhibitors of Methyltransferases
[1] = molecular target: Glycine N-methyltransferase (Homo sapiens) (UniProt Q14749); conditions: purified enzyme, MTase-Glo SAH luminescence; measured here: GNMT inhibition; at 40 µM; stronger effect = lower value
Summary of the method: (§1)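 Each enzyme was reacted with SAM and its substrate, with compounds tested once at 40 uM; SAH formed was read by MTase-Glo luminescence.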

[2] = molecular target: Guanidinoacetate N-methyltransferase (Homo sapiens) (UniProt Q14353); conditions: purified enzyme, MTase-Glo SAH luminescence; measured here: GAMT inhibition; at 40 µM; stronger effect = lower value
Summary of the method: as §1

[3] = molecular target: Histamine N-methyltransferase (Homo sapiens) (UniProt P50135); conditions: purified enzyme, MTase-Glo SAH luminescence; measured here: HNMT inhibition; at 40 µM; stronger effect = lower value
Summary of the method: as §1

[4] = molecular target: Nicotinamide N-methyltransferase (Homo sapiens) (UniProt P40261); conditions: purified enzyme, MTase-Glo SAH luminescence; measured here: NNMT inhibition; at 40 µM; stronger effect = lower value
Summary of the method: as §1

[5] = molecular target: Phenylethanolamine N-methyltransferase (Homo sapiens) (UniProt P11086); conditions: purified enzyme, MTase-Glo SAH luminescence; measured here: PNMT inhibition; at 40 µM; stronger effect = lower value
Summary of the method: as §1
On the % scale 0 is the no-effect control and ±100 the full control effect.

| SMILES | activity change, negative = inhibition [1] [%] | activity change, negative = inhibition [2] [%] | activity change, negative = inhibition [3] [%] | activity change, negative = inhibition [4] [%] | activity change, negative = inhibition [5] [%] |
| --- | --- | --- | --- | --- | --- |
| O=C(Nc1ccc2c(c1)OCCO2)N[C@@H]1C[C@H](CO)[C@@H](O)[C@H]1O | -5.69 | -7.1 | -5.55 | -13 | -7.49 |
| Cc1c(Cl)cccc1N1C(=O)c2cc(-c3cccs3)nn2CC1(C)C(=O)NC1CCCCC1 (stereo not given) | -6.98 | 2.34 | -4.02 | -0.676 | -3.84 |
| Nc1nc2c(ncn2CCC(CO)CO)c(=O)[nH]1 | -8.16 | -13.8 | -2.72 | -29.4 | -3.54 |
| O=C(Cn1ccc2cc(S(=O)(=O)N3CCCCC3)ccc21)NCc1ccccc1F | -0.943 | 2.48 | -5.88 | -10.8 | -6.61 |
| COc1cccc(CCC(=O)N2CCC(OCC3CC3)C2)c1 (stereo not given) | -0.438 | 0.988 | 2.06 | 2.85 | 1.1 |
| Cn1cccc1CN1CC(Oc2ccc(F)cc2F)C1 | -8 | -1.53 | -5.41 | -4.38 | -4.61 |
| COc1cc2c(c(OC)c1O)C(c1ccc(O)cc1)C1C(=O)OC3C(COC(=O)C1=C2)OC(CO)(OC1OC(COC(=O)/C=C/c2ccc(OC4OC(C)C(O)C(O)C4O)cc2)C(O)C(O)C1O)C3O (stereo not given) | -13.7 | -7.04 | -6.69 | -16.2 | -16 |
| O=C(NCc1cccc(Cl)c1)c1ccc2oc(-c3cccnc3)nc2c1 | -7.11 | -10 | -3.03 | -18.4 | -6.42 |
| COc1ccc(N(C(=O)c2ccc(Cl)cc2)S(=O)(=O)c2ccc3c(c2)n(C)c(=O)n3C)cc1 | -3.48 | 0.909 | -0.408 | 5.81 | -3.3 |
| COc1ccc(-c2cc3n(n2)CC(C)(C(=O)NCc2ccccc2OC)N(c2ccc(OC)cc2)C3=O)cc1 (stereo not given) | 3.23 | 1.57 | 0.539 | -0.111 | 0.082 |
| O=C(NC1CCN(Cc2ccccc2)CC1)C1CCCN(c2cnc3nccnc3c2)C1 (stereo not given) | -4.68 | -1.5 | -12.9 | -12.1 | 0.183 |
| C[S+](=O)([O-])NC1CCN(c2nc3ncccc3o2)C1 (stereo not given) | -1.15 | -7.18 | -1.33 | -10.5 | -7.48 |
| Cc1ccc(-c2nnc3n(Cc4ccc(F)cc4)c(=O)c4ccccc4n23)cc1 | -11.8 | 2.92 | -4.12 | -8.04 | -3.25 |
| C=C(C)C1CCC2(C(=O)O[C@@H]3O[C@H](CO[C@@H]4O[C@H](CO)[C@@H](O)[C@H](O)[C@H]4O)[C@@H](O)[C@H](O[C@@H]4O[C@@H](C)[C@H](O)[C@@H](O)[C@H]4O)[C@H]3O)CCC3(C(=O)O)C(CCC4C5(C)CCC(O)C(C)(C)C5CCC43C)C12 (stereo not given in full) | 7.35 | 5.14 | 11.5 | -6.42 | 4.04 |
| COc1ccc(CN(C)CC2CCN(C)C2(C)C)cc1C(=O)O (stereo not given) | -7.08 | -14 | -6.46 | -14.7 | -10.2 |
| O=C(Cc1c[nH]c2ccccc12)N1CCc2c(nc(-c3ccc(F)cc3)[nH]c2=O)C1 | -12.1 | -7.89 | -3.92 | -10.1 | 1.47 |
| CC(C)Cn1c(=O)c2sccc2n2c(CCC(=O)NCc3ccncc3)nnc12 | -2.31 | 2.5 | 11.3 | 7.5 | 4.05 |
| Cc1cc2c(cc3n2CC(C)(C(=O)NC2CCCCCC2)N(CCN2CCCCCC2)C3=O)o1 (stereo not given) | 0.119 | 4.77 | -14.7 | -6.96 | -3.31 |

| SMILES | activity change, negative = inhibition [1] [%] | activity change, negative = inhibition [2] [%] | activity change, negative = inhibition [3] [%] | activity change, negative = inhibition [4] [%] | activity change, negative = inhibition [5] [%] |
| --- | --- | --- | --- | --- | --- |
| O=C(NCc1cccnc1)c1cc(CN2CCC(Cc3ccccc3)CC2)on1 | -10.8 | -13.4 | -11.9 | -13.4 | -15.2 |
| CCN(CC)CCOCCOC(=O)C(CC)(CC)c1ccccc1 | 2.54 | 7.52 | -0.501 | -6.66 | 2.24 |
| CCOc1ccc(CN2C(=O)c3cc4occc4n3CC2(C)C(=O)NC2CCCCC2)cc1 (stereo not given) | 3.58 | 0 | 7.84 | 8.84 | 3.49 |
| O=C(Cn1c(=O)oc2cc(S(=O)(=O)N3CCCC3)ccc21)Nc1nccs1 | -0.084 | 3.87 | -0.689 | 4.84 | -22.7 |
| CCOCCCNC(=O)C1c2c(n(C)c3ccccc23)SCC(=O)N1c1ccc(CC)cc1 (stereo not given) | 4.54 | 0.862 | 3.31 | 3.87 | 5.97 |
| O=C(N[C@H](c1ccccn1)C1CC(O)C1)c1ccc(Cn2cccn2)o1 (stereo not given in full) | -0.065 | 0.334 | 0.822 | 0.133 | 2.47 |
| C=CCCC(CN1CCSCC1)Oc1ncc(CC)cn1 (stereo not given) | -0.246 | 2.04 | 3.52 | 1.18 | 3.01 |
| CCCC1c2cccn2CCN1C(=O)Nc1ccccc1C (stereo not given) | -4.24 | 0 | -22 | 0.508 | 4.69 |
| CCN1C(=O)c2cc(C(=O)NCc3ccccc3Br)nn2CC1(C)C(=O)NC1CCCC1 (stereo not given) | -0.428 | 0.905 | -5.03 | 2.97 | -3.72 |
| COc1cc2c(cc1CN1CCC3(CCCNC3)C1)OCCCO2 (stereo not given) | -1.54 | -3.11 | -1.81 | -3.7 | -3.47 |
| C/C=C(\C)C(=O)O[C@@H]1CC2[C@@H](CC=C3C[C@@H](O[C@H]4C[C@H](OC)[C@H](O[C@H]5C[C@H](OC)[C@H](O[C@H]6C[C@H](OC)[C@H](O[C@H]7C[C@@H](OC)[C@H](O[C@@H]8O[C@H](CO)[C@@H](O)[C@H](O)[C@H]8O)[C@@H](C)O7)[C@@H](C)O6)[C@@H](C)O5)[C@@H](C)O4)CC[C@@]32C)[C@@]2(O)CC[C@H](C(C)=O)[C@@]12C (stereo not given in full) | 0 | 20.6 | 10.4 | 7.74 | 8.36 |
| CN1C2CCC1CC(OC(=O)C(O)c1ccccc1)C2 (stereo not given) | 3.01 | 9.83 | 4.28 | -5.56 | 4.07 |
| CC(C)NC(=O)CSc1nnc2n(Cc3ccccc3)c(=O)c3ccccc3n12 | -5.26 | 4.4 | 4.92 | -5.06 | -2.73 |
| N#CC(=C(\N)Sc1ccccc1N)/C(C#N)=C(/N)Sc1ccccc1N | -53.7 | 8.61 | 3.23 | -6.34 | -5.99 |
| Cc1ccc(Cn2c(=O)c3ccccc3n3c(CCC(=O)Nc4cc(C)cc(C)c4)nnc23)cc1 | -2.52 | 0 | 5.83 | 2.32 | 1.65 |
| COc1cccc(S(=O)(=O)N2CCC(n3c(C)cnc3C3CCOCC3)CC2)c1 | 3.3 | 0.893 | 10.2 | -5.42 | 4.89 |
| Cc1ccc(CNC(=O)c2ccc3c(=O)nc4c(-c5ccc(Cl)cc5)n[nH]n4c3c2)cc1 | 3.19 | 0 | 7.97 | 9.53 | 4.02 |
| O=C1CCN(C(=O)c2nccc3ccccc23)CCOCCN1 | -4.35 | -7.25 | -3.03 | -5.17 | -1.76 |
